Results taken from PubChem BioAssay AID1963576 (National Center for Advancing Translational Sciences (NCATS), 2024).
The whole screen tested about 46,000 compounds, of which about 60 (0.1%) were called active. Another 3% or so got no clear call; they are omitted. The call rests on the fitted dose curve; in most records, active means well fitted inhibition curve with a large enough effect; inconclusive means small, poorly fitted or top-dose-only effect; inactive means no such curve, though single readings can be large or run the other way. Some of the results follow.

Test: Primary qHTS assay for Inhibitors of ovarian cancer metastasis using an organotypic tumor microenvironment (TME) model. Further: nearly all actives have a fitted effect of over 65% in size.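 On activity change, negative = inhibition: plate controls were DMSO wells for no effect and tomatine positive control wells for full effect.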
Conditions: SKOV3ip1-GFP adhesion/invasion on 3D omental model, fluorescence; series mostly up to 45.8 µM; activity change, negative = inhibition: at the top concentration
Procedure, shortened: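 Adhesion/invasion was scored as fixed GFP-labeled SKOV3ip1 cell counts (488/509 nm), normalized to DMSO and tomatine controls. Cancer cells in serum-free medium, with four compound doses (0.36-46 umol/L), sat 2 hr at RT then 16 hr at 37 C on a 48 hr fibroblast/mesothelial/ECM culture.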

Activity change, negative = inhibition, inactive:
CCCCC(=O)OC1=C(C(=O)c2ccccc2)N(CC)S(=O)(=O)c2ccccc21 10%
CSc1ccc(CNC(=O)c2cc3cc(S(=O)(=O)N4CCCCC4)ccc3n2C)cc1 -2.31%
COc1ccc(Cn2ccc3nc(C)c(C(=O)Nc4ccc(OC(F)(F)F)cc4)cc3c2=O)cc1 -0.648%
COc1ccccc1N1CCN(S(=O)(=O)c2c(C)nc3sc(C)c(C)n3c2=O)CC1 -24.2%
Cc1cccc(OCCSc2nc(-c3cccs3)nc3cc(=O)[nH]n23)c1 -2.14%
O=C(NCC(c1cccnc1)N1CCc2ccccc2C1)C(=O)Nc1ccccc1 (stereo unspecified) 7.1%
COc1cccc(CNC(=O)C2CCN(S(=O)(=O)N3CCC(C)CC3)CC2)c1 -5.47%
CC1CCN(S(=O)(=O)c2ccc3nc(Nc4ccc(C#N)cc4)ccc3c2)CC1 1.3%
COc1cccc2c1Oc1ncccc1N(C(=O)Nc1cccc(Cl)c1)C2 3.17%
Cc1cccc(CNC(=O)c2ccc3c(c2)N(C)C(=O)C2CCCCN32)c1 (stereo unspecified) -2.63%
COc1ccc(CNS(=O)(=O)c2cnc(N)nc2)cc1 -0.247%
CCOc1ccccc1NC(=O)CN1c2ccccc2S(=O)(=O)c2ccccc21 0.329%
CCCCC(=O)OC1=C(C(=O)c2ccccc2)N(C)S(=O)(=O)c2ccccc21 -3.66%
CCOc1ccccc1NC(=O)C1CCN(S(=O)(=O)c2ccc3[nH]c4c(c3c2)CCCCC4)CC1 5.84%
Cc1nn(C)c(C)c1S(=O)(=O)N(CC(=O)N1CCN(c2ccccc2)CC1)c1ccc(C(C)C)cc1 4.26%
COc1cc2c(cc1OC)[C@@H]1C(=O)c3ccc4c(c3O[C@@H]1CO2)C=CC(C)(C)O4 1.7%
Cc1ccccc1NC(=O)c1ccc(F)c(S(=O)(=O)N(C)C2CCCCC2)c1 -5.39%
O=C(NCc1cccs1)c1ccc(CSc2nc3cccnc3n2Cc2ccccc2)cc1 0.757%
Cc1ccc(C)c(NC(=O)Cn2c(=O)ccc3cc(S(=O)(=O)N4CCCC4)ccc32)c1 -1.91%
COc1ccccc1NC(=O)c1cc2c([nH]c1=O)CC(C)(C)CC2=O -0.132%
O=C(CCn1c(=O)c2cccn2c2ccccc21)Nc1ccc(F)cc1 -13.9%
CCCCCNC(=O)c1ccc2c(c1)nc(C)n2-c1cccc(C)c1 3.69%
CCN1CCN(C(c2ccccc2)c2c(O)cc(C)n(Cc3ccco3)c2=O)CC1 (stereo unspecified) -1.84%
COc1ccc(CNC(=O)C2CCN(S(=O)(=O)c3ccc(C)cc3)CC2)cc1 -0.336%
Fc1ccc(Cc2cn3cc(-c4ccc(Cl)cc4)nc3s2)cc1 18.7%
CC1Cc2cc(S(=O)(=O)N(C)c3ccc(Br)cc3)ccc2N1C(=O)C1CC1 (stereo unspecified) -24.2%
O=C(COc1ccc(Cl)cc1)NCCc1csc(-c2ccc(F)cc2)n1 3.95%
CCOC(=O)c1nnn(CC(=O)NC(=O)Nc2cccc(CC)c2)c1C(=O)OCC -19.3%
CCOc1ccc(CCNC(=O)c2cccc(-n3c(C)nc4cccnc43)c2)cc1 28%
COc1ccc(-c2nnc3c4ccccc4c(-c4ccccc4)nn23)cc1 21.7%
COc1ccc(OC)c(CNC(=O)C2CCN(c3ncnc4c3nc3n4CCCCC3)CC2)c1 -7.56%
CC(=O)c1cccc(NC(=O)c2nc3ccccc3nc2N2CCCCC2)c1 4.23%
O=C(CCn1nc(-c2ccc(Cl)cc2)c2ccccc2c1=O)Nc1ccc(OC(F)(F)F)cc1 -3.82%
O=C(Nc1ccc(F)cc1Cl)C1Cc2ccccc2N1C(=O)c1ccccc1 (stereo unspecified) -9.28%
Cc1ccc(C2=NN(CC(=O)NCCc3ccc(Cl)cc3)C(=O)CC2)cc1 -9.89%
CCOc1ccc(-c2cn3c(n2)sc2cc(C(=O)NCCc4ccc(OC)c(OC)c4)ccc23)cc1 -5.42%
O=C(Nc1cc(F)ccc1F)c1cc2nc(-c3ccco3)cc(C(F)(F)Cl)n2n1 15.8%
COC(=O)c1cc(S(=O)(=O)NCC2CCN(Cc3ccccc3F)CC2)c[nH]1 21.3%
CCC(C)(C)NC(=O)Cn1c(=O)ccc2cc(S(=O)(=O)N3CCC(C)CC3)ccc21 -2.85%
CCOC(=O)N1CCC(NC(=O)c2ccc3c(c2)N(Cc2cc(C)ccc2C)C(=O)c2ccccc2S3=O)CC1 (stereo unspecified) 3.18%
O=C(CSc1nccn1Cc1ccccc1)Nc1ccc2c(c1)OCO2 12%
Cc1cccc(NC(=O)N2CCC(n3c(C)nc4cccnc43)CC2)c1 13.7%
CN(C(=O)c1cc2c(=O)n3ccccc3nc2n1C)c1ccccc1 -12.4%
CC(C)c1cnn2c(NCc3ccccc3)cc(N[C@@H](CO)[C@H](O)CO)nc12 20.3%
CCOc1cc(C(=O)NCCc2csc(-c3ccc(C)cc3)n2)cc(OCC)c1OCC 2.06%
CCOC(=O)c1c(NC(=O)CSc2nc(-c3ccccc3)cc(C(F)(F)F)n2)sc(C)c1C 2.25%
Cn1cc(CCCC(=O)NCc2ccccc2Cl)c2ccccc21 17%
CCOc1ccc(CCNC(=O)CN2C(=O)c3cccnc3Oc3ccc(Cl)cc32)cc1 3.45%
CC(=O)N1c2ccc(S(=O)(=O)N3CCCCCC3)cc2CC1C(=O)NCc1ccccc1F (stereo unspecified) -27.9%
CCOc1ccc(OCC)c(Nc2cc(C)nc3nc(-c4ccco4)nn23)c1 -2.47%
CCOC(=O)c1c(S(=O)(=O)N2CCC(C(=O)Nc3ccc(OCC)cc3)CC2)c(C)n(C)c1C 16.1%
CCCCN(CCCC)CCNC(=O)c1cn(C)c2ccc(S(=O)(=O)N3CCCC3)cc2c1=O 8.37%
CCc1cnc2c(c1SCC(=O)N1CCC(C)CC1)c(=O)n(C)c(=O)n2C 9.02%
Cc1c(NC(=O)Nc2ccc(F)c(Cl)c2)c(=O)n(-c2ccccc2)n1C -8.08%
O=C(NCc1ccccc1Cl)c1ccc(Nc2nc3ccccc3n3nnnc23)cc1 -8.11%
Cc1ccc(OCc2nc(-c3ccc(C(=O)N4CCN(c5ccccc5)CC4)cc3)oc2C)cc1 -0.55%
CCc1ccc(C2c3c(-c4cc(C)ccc4O)n[nH]c3C(=O)N2Cc2cccnc2)cc1 (stereo unspecified) -18.5%
COc1ccc(OC)c(NC(=O)N2c3ccccc3Sc3ccccc32)c1 2.99%
Cc1ccc(-c2nn(CC(=O)Nc3cccc(C(F)(F)F)c3)c(=O)c3ccccc23)cc1 3.7%
Cc1oc(C)c2c(=O)cc(-c3ccc4c(c3)OCO4)cc(OC(=O)c3ccc(Cl)cc3)c12 -0.177%
Cc1ccc(-c2nc3ccccc3[nH]2)cc1NC(=O)COc1cccc(C)c1C -3.2%
Cc1ccc(-c2nonc2NC(=O)c2ccco2)cc1C 3.93%
COc1cc(CNc2ccc3[nH]c(=O)[nH]c3c2)cc(Cl)c1OCc1ccccc1F -25.3%
O=C(C=CC#Cc1cccc(NS(=O)(=O)c2ccccc2)c1)NO -9.7%
COc1ccc(C)cc1NC(=O)CCn1nc(C)cc1C 1.77%
CCC(Sc1nc2ccccc2c2nc(CCc3c(C)n[nH]c3C)nn12)C(=O)Nc1ccccc1F (stereo unspecified) 8.16%
Cc1cccc(-c2[nH]ncc2-c2ccc3ncccc3n2)n1 -6.28%
COC(=O)c1ccc(NC(=O)CSc2n[nH]c(CC(C)C)n2)cc1 -6.22%
Cc1ccc(NC(=O)Cn2c(=O)c(CNc3ccccc3)cc3cc4c(cc32)OCCO4)cc1 0.841%
COc1ccc(CNC(=O)c2cc3cccc(OC)c3oc2=O)cc1 32.8%

outcome, inactive:
COc1ccccc1CNS(=O)(=O)c1ccc(F)c(C(=O)Nc2cc(Cl)ccc2OC)c1
Cc1ccc(CNC(=O)c2cc(S(=O)(=O)N3CCCCCC3)cn2C)cc1
O=C(Nc1ccc(F)cc1F)c1cnn(-c2ccc(F)cc2)c1-n1cccc1
Cn1nc(-c2ccc(C(=O)Nc3cccc(C(F)(F)F)c3)cc2)c2ccccc2c1=O
O=C1C2=C(Nc3ccccc3SC2c2ccccc2C(F)(F)F)c2ccccc21 (stereo unspecified)
N#C/C(=C/c1ccc(Cl)cc1Cl)c1nc2ccccc2c(=O)[nH]1
COc1ccc(NC(=O)C2CCCN(S(=O)(=O)c3cccs3)C2)cc1 (stereo unspecified)
CCC1CCCCN1CCCNC(=O)c1cc2c(=O)n(CC)c3ccccc3c2s1 (stereo unspecified)
CCN(CC)C(=O)c1sc2c(c1C)c(=O)n(-c1ccc(Cl)c(Cl)c1)c(=O)n2CC(=O)Nc1cccc(OC)c1
O=C(Nc1ccccc1F)c1ccc(-c2ccccc2)s1
COC(=O)c1c(N)n(-c2ccc(OC)c(Cl)c2)c2nc3ccccc3nc12
Cc1ccc(Cl)cc1N1CCN(C(=O)C2CCN(S(=O)(=O)c3ccc4c(c3)oc(=O)n4C)CC2)CC1
CCC(=O)N1CCc2cc(S(=O)(=O)CCC(=O)N3CCN(c4ccc(C(C)=O)cc4)CC3)ccc21
CN1C(=O)C2(c3ccccc31)N(c1ccc(F)c(Cl)c1)C(=O)CS2(=O)=O (stereo unspecified)
Cc1cc(C)c2c(n1)nn1c(C)c(CCC(=O)NCc3ccc(Cl)cc3)c(C)nc21
COc1ccc(CCNC(=O)CCn2c(=O)c3cccn3c3cccnc32)c(OC)c1OC
CCOc1ccc(CCNC(=O)Cn2nnc(-c3ccc(C(F)(F)F)cc3)n2)cc1OCC
CC(=O)Nc1nnc(SCc2cc(=O)c3cccc(Cl)c3[nH]2)s1
O=C(c1ccc([N+](=O)[O-])cc1)N1CCN(c2ccc(Nc3ccccc3)nn2)CC1
Cc1ccc(CNc2ccc(-c3nc(-c4ccccn4)no3)cc2[N+](=O)[O-])cc1
Cc1nn(CCC(=O)N2CCN(c3ccccc3)CC2)c(C)c1S(=O)(=O)N1CCCC1
Cc1ccc(CNC(=O)c2ccc3c(c2)N(Cc2cccc(C)c2)C(=O)CS3)cc1
COc1ccccc1Cn1c(CNS(=O)(=O)c2cccc([N+](=O)[O-])c2)nc2cccnc21
Cc1cccc(C)c1NC(=O)CSCc1cnn(-c2ccccc2)c1-n1cccc1
CCN(CC)C(=O)C1=C(C)Nc2nc3ccccc3n2C1c1cccc(Cl)c1 (stereo unspecified)
O=C(NCc1ccco1)c1ccc2c(c1)N(Cc1ccccc1F)C(=O)c1ccccc1S2=O (stereo unspecified)
